Measured values from the antibiotic and cytotoxicity screens of Wong et al. (2023).
This is one part of the list.

What follows are compounds tested on HepG2 (assay: cytotoxicity call (relative viability < 0.9)). Conditions: 10 µM.
In the case of `C[C@@H]1CCCCO[C@@H](CN(C)Cc2ccc(C(=O)O)cc2)[C@@H](C)CN([C@@H](C)CO)C(=O)c2cc(NC(=O)Cc3ccccc3)ccc2O1`, the cytotoxicity call is reported as “inactive”. For `C[C@@H]1CN([C@H](C)CO)C(=O)c2cc(NS(C)(=O)=O)ccc2O[C@H]1CN(C)Cc1ccc(C(=O)O)cc1`, the cytotoxicity call was “inactive”. For `Cn1cnc(S(=O)(=O)N[C@@H]2CC[C@H](CC(=O)N3CCN(c4ccccc4)CC3)O[C@@H]2CO)c1`, the cytotoxicity call was “inactive”. For `C[C@H]1CCc2c(sc(/N=C/C=C/c3ccccc3)c2C#N)C1`, the cytotoxicity call was “inactive”. For `CC(C)(C)CC(C)(C)c1ccc(O)c(Cc2ccc(Cl)cc2Cl)c1`, the cytotoxicity call was “active”. In the case of `C[C@H](CO)N1C[C@H](C)[C@@H](CN(C)C(=O)Nc2ccc(C(F)(F)F)cc2)OCCCC[C@H](C)Oc2ccc(NC(=O)Cc3ccccc3)cc2C1=O`, the cytotoxicity call is reported as “inactive”. For `CN(C)[C@@H](CN)c1cccn1C`, the cytotoxicity call was “inactive”. For `CCN(CC)CCNC(=O)c1ccc(N)cc1.Cl`, the cytotoxicity call was “inactive”. `COc1ccc(-c2nc(N3CCOCC3)c3sc(CN(C)c4ncc(C(=O)NO)cn4)cc3n2)cn1` was tested, and the cytotoxicity call was “active”. With `O=C(O)c1ccc(O)cc1O` the cytotoxicity call was “inactive”. For `Cc1cc(C(=O)Nc2cccc3c2O[C@@H](CN(C)S(=O)(=O)c2cccs2)[C@@H](C)CN([C@H](C)CO)C3=O)n(C)n1`, the cytotoxicity call was “inactive”. With `C[C@@H]1CCCCO[C@@H](CN(C)S(=O)(=O)c2cccs2)[C@@H](C)CN([C@H](C)CO)C(=O)c2cc(NS(=O)(=O)c3ccc(Cl)cc3)ccc2O1` the cytotoxicity call was “inactive”. `C[C@@H]1CN([C@@H](C)CO)S(=O)(=O)c2ccc(-c3cccc(C#N)c3)cc2O[C@H]1CN(C)C(=O)c1cccnc1` was tested, and the cytotoxicity call was “inactive”. In the case of `C[C@@H]1CCCCO[C@@H](CN(C)C(=O)Nc2ccc(F)cc2)[C@H](C)CN([C@@H](C)CO)C(=O)c2cc(NC(=O)NC3CCCCC3)ccc2O1`, the cytotoxicity call is reported as “inactive”. For `CC(=O)N(O)CCCCCNC(=O)CCC(=O)N(O)CCCCCNC(=O)CCC(=O)N(O)CCCCCN`, the cytotoxicity call was “active”. In the case of `C[C@H]1CCCCO[C@H](CN(C)C(=O)Nc2ccc(C(F)(F)F)cc2)[C@@H](C)CN([C@@H](C)CO)C(=O)c2cc(NC(=O)Nc3ccc(C(F)(F)F)cc3)ccc2O1`, the cytotoxicity call is reported as “active”. `Cc1noc(C)c1S(=O)(=O)Nc1cccc2c1O[C@@H](CN(C)Cc1ccc(-c3ccccc3)cc1)[C@@H](C)CN([C@@H](C)CO)C2=O` was tested, and the cytotoxicity call was “inactive”. With `C[C@H]1CN([C@@H](C)CO)C(=O)Cc2cc(NC(=O)c3ccncc3)ccc2O[C@@H]1CN(C)Cc1ccc(Oc2ccccc2)cc1` the cytotoxicity call was “inactive”. `COCCOC(=O)N1C(=O)[C@@]2(c3cc(C#CCNC(N)=O)ccc31)[C@H](C(=O)N1CCc3cc(OC)c(OC)cc3C1)[C@H]1C(=O)O[C@H](c3ccccc3)[C@H](c3ccccc3)N1[C@@H]2c1ccccc1OCCO` was tested, and the cytotoxicity call was “inactive”. For `C[C@@H]1CN([C@H](C)CO)C(=O)c2cccc(NS(=O)(=O)c3cccs3)c2O[C@@H]1CN(C)S(=O)(=O)c1cn(C)cn1`, the cytotoxicity call was “inactive”. With `C[C@H]1CN([C@@H](C)CO)C(=O)c2cccc(NC(=O)C3CCCCC3)c2O[C@@H]1CN(C)C(=O)Nc1cccc2ccccc12` the cytotoxicity call was “inactive”. For `Cc1noc(C)c1S(=O)(=O)N(C)C[C@@H]1OCCCC[C@@H](C)Oc2ccc(NS(=O)(=O)c3cn(C)cn3)cc2C(=O)N([C@H](C)CO)C[C@@H]1C`, the cytotoxicity call was “inactive”. In the case of `C[C@H](O)C#Cc1cnc2c(c1)C(=O)N([C@H](C)CO)C[C@@H](C)[C@@H](CN(C)C(=O)Nc1ccc(C(F)(F)F)cc1)O2`, the cytotoxicity call is reported as “inactive”. `CCCNC(=O)C[C@H]1CC[C@H]2[C@@H](COc3ccc(NC(=O)Nc4ccc(C#N)cc4)cc3C(=O)N2C)O1` was tested, and the cytotoxicity call was “inactive”. `C[C@H]1CCCCO[C@H](CN(C)C(=O)C2CCCCC2)[C@@H](C)CN([C@@H](C)CO)C(=O)c2cc(NC(=O)c3ccncc3)ccc2O1` was tested, and the cytotoxicity call was “inactive”. `CC(C)NC(=O)N(C)C[C@@H]1Oc2c(NC(=O)Nc3ccc4c(c3)OCO4)cccc2C(=O)N([C@@H](C)CO)C[C@H]1C` was tested, and the cytotoxicity call was “active”. For `C[C@@H]1[C@@H](c2ccccc2)OC(=O)[C@@H]2[C@H]3C(=O)N([C@@H](C)CO)[C@@H]4C(=O)N(Cc5ccccc5)CC=C[C@]34O[C@@H]2/C=C/CCC(=O)N1C`, the cytotoxicity call was “inactive”. For `COc1ccc(S(=O)(=O)N(C)C[C@H]2Oc3ccc(NC(=O)Nc4cccc5ccccc45)cc3C(=O)N([C@@H](C)CO)C[C@@H]2C)cc1`, the cytotoxicity call was “inactive”. With `Cc1noc(C)c1NC(=O)N[C@H]1CC[C@@H](CC(=O)NCCCN(C)C)O[C@H]1CO` the cytotoxicity call was “inactive”.
